These results are taken from PMC10924105.

The chains behind the UniProt entries cited, without tags or fusion partners. Residues count along the entry.
UniProt P11021, residues 19-654: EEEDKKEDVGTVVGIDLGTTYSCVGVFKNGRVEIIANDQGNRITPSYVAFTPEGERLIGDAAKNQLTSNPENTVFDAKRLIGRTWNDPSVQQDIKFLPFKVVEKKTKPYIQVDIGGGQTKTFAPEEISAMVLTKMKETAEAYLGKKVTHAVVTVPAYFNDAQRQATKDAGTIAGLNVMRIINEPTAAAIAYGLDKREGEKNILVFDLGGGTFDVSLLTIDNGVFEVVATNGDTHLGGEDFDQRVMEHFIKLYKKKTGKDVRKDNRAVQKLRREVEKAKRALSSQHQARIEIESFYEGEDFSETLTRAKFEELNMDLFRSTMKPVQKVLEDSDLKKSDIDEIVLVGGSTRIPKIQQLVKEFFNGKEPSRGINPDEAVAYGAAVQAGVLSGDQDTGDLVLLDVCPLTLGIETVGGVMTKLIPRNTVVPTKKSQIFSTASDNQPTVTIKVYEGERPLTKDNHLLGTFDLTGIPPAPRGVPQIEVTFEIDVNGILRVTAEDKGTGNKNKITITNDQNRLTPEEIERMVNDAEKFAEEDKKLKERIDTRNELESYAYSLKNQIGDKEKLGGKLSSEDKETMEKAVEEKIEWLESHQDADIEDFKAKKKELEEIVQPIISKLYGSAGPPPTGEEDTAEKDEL

No constants are given. Whether binding was seen depends on the method and setting. In cells and extracts the contact can be indirect. Some binding calls cover weakened binding; strength is not graded here. For some assays here: Where a sequence is shown, tags or fusion partners need not be part of it.

The target of assay [1] is T1, asialoglycoprotein receptor 1 (ASGR1), endogenous in HepG2 cells (human (endogenous in HepG2)) (UniProt P07306).
T1 sequence: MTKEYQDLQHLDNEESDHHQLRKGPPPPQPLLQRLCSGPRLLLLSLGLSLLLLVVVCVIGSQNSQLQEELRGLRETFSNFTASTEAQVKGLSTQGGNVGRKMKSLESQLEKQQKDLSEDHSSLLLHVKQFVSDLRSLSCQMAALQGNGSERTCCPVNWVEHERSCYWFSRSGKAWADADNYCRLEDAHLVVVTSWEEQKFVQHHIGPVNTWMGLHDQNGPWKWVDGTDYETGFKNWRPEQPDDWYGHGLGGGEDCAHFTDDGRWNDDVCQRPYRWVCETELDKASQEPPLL
In words: co-IP; endogenous Co-IP in HepG2 cells, western blot. (A western blot detects proteins with antibodies after separation by electrophoresis.)

Assay [2] concerns the target immunoglobulin heavy chain binding protein (BIP), overexpressed (UniProt P11021). In words: co-IP; exogenous Co-IP in hepatocytes overexpressing GP73 and BIP, with ASGR1 knockdown (interaction increased) or ASGR1 overexpression (binding reduced).
In assay [3] the target is T2, HA-tagged ASGR1 (WT) (UniProt P07306).
T2 sequence: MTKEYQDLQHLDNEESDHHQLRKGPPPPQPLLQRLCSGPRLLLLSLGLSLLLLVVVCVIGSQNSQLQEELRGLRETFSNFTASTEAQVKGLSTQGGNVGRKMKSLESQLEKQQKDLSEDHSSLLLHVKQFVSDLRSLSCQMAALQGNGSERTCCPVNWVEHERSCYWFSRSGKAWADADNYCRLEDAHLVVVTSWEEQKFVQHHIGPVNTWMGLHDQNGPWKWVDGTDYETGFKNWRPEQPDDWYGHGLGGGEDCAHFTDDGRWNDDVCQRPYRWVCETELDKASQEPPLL
In words: co-IP; exogenous Co-IP in HepG2 cells cotransfected for 24 h with HA-tagged ASGR1 and Flag-tagged GP73 constructs; lysates in NP40 buffer (1% NP40, 150 mM NaCl, 40 mM Tris pH 7.5); anti-HA or anti-Flag magnetic beads, 4 °C overnight; western blot.

Assay [4] concerns the target T3, HA-tagged ASGR1 fragment, 161-291 aa domain (UniProt P07306).
T3 sequence: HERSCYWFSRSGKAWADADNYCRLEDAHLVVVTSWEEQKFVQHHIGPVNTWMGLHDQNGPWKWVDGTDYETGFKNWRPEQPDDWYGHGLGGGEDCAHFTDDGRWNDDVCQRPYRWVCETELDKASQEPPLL
Described as above.

In assay [5] the target is T4, HA-tagged ASGR1 triple Ala-mutant (3A) (UniProt P07306).
T4 sequence: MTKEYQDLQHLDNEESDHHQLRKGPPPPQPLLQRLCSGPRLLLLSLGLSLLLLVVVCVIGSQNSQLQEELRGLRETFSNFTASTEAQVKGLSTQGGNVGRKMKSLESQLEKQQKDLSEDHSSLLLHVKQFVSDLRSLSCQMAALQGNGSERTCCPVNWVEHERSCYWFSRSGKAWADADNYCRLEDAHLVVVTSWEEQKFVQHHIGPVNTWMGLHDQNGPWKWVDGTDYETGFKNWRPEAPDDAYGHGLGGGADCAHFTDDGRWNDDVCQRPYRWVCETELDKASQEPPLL
The assay is described as above.

B1: PLVAP, endogenous in HepG2 cells (protein, UniProt Q9BX97 1-442)
chain: MGLAMEHGGSYARAGGSSRGCWYYLRYFFLFVSLIQFLIILGLVLFMVYGNVHVSTESNLQATERRAEGLYSQLLGLTASQSNLTKELNFTTRAKDAIMQMWLNARRDLDRINASFRQCQGDRVIYTNNQRYMAAIILSEKQCRDQFKDMNKSCDALLFMLNQKVKTLEVEIAKEKTICTKDKESVLLNKRVAEEQLVECVKTRELQHQERQLAKEQLQKVQALCLPLDKDKFEMDLRNLWRDSIIPRSLDNLGYNLYHPLGSELASIRRACDHMPSLMSSKVEELARSLRADIERVARENSDLQRQKLEAQQGLRASQEAKQKVEKEAQAREAKLQAECSRQTQLALEEKAVLRKERDNLAKELEEKKREAEQLRMELAIRNSALDTCIKTKSQPMMPVSRPMGPVPNPQPIDPASLEEFKRKILESQRPPAGIPVAPSSG
B1: the binding entry in assay [1] is given as “binds”.

B2: Golgi Protein 73 (GP73), endogenous in HepG2 cells (protein, UniProt Q8NBJ4 1-401)
chain: MMGLGNGRRSMKSPPLVLAALVACIIVLGFNYWIASSRSVDLQTRIMELEGRVRRAAAERGAVELKKNEFQGELEKQREQLDKIQSSHNFQLESVNKLYQDEKAVLVNNITTGERLIRVLQDQLKTLQRNYGRLQQDVLQFQKNQTNLERKFSYDLSQCINQMKEVKEQCEERIEEVTKKGNEAVASRDLSENNDQRQQLQALSEPQPRLQAAGLPHTEVPQGKGNVLGNSKSQTPAPSSEVVLDSKRQVEKEETNEIQVVNEEPQRDRLPQEPGREQVVEDRPVGGRGFGGAGELGQTPQVQAALSVSQENPEMEGPERDQLVIPDGQEEEQEAAGEGRNQQKLRGEDDYNMDENEAESETDKQAALAGNDRNIDVFNVEDQKRDTINLLDQREKRNHTL
For B2, the binding entry in assay [1] is given as “binds”.

B3: Flag-tagged GP73 (WT) (protein, UniProt Q8NBJ4 1-401)
chain: MMGLGNGRRSMKSPPLVLAALVACIIVLGFNYWIASSRSVDLQTRIMELEGRVRRAAAERGAVELKKNEFQGELEKQREQLDKIQSSHNFQLESVNKLYQDEKAVLVNNITTGERLIRVLQDQLKTLQRNYGRLQQDVLQFQKNQTNLERKFSYDLSQCINQMKEVKEQCEERIEEVTKKGNEAVASRDLSENNDQRQQLQALSEPQPRLQAAGLPHTEVPQGKGNVLGNSKSQTPAPSSEVVLDSKRQVEKEETNEIQVVNEEPQRDRLPQEPGREQVVEDRPVGGRGFGGAGELGQTPQVQAALSVSQENPEMEGPERDQLVIPDGQEEEQEAAGEGRNQQKLRGEDDYNMDENEAESETDKQAALAGNDRNIDVFNVEDQKRDTINLLDQREKRNHTL
Turning to B3, the binding entry in assay [2] is on record as “binds”; in assay [3], “binds”; in assay [4] it was “binds”; in assay [5] it was “no binding”.

B4: Flag-tagged GP73-N144A (protein, UniProt Q8NBJ4 1-401)
chain: MMGLGNGRRSMKSPPLVLAALVACIIVLGFNYWIASSRSVDLQTRIMELEGRVRRAAAERGAVELKKNEFQGELEKQREQLDKIQSSHNFQLESVNKLYQDEKAVLVNNITTGERLIRVLQDQLKTLQRNYGRLQQDVLQFQKAQTNLERKFSYDLSQCINQMKEVKEQCEERIEEVTKKGNEAVASRDLSENNDQRQQLQALSEPQPRLQAAGLPHTEVPQGKGNVLGNSKSQTPAPSSEVVLDSKRQVEKEETNEIQVVNEEPQRDRLPQEPGREQVVEDRPVGGRGFGGAGELGQTPQVQAALSVSQENPEMEGPERDQLVIPDGQEEEQEAAGEGRNQQKLRGEDDYNMDENEAESETDKQAALAGNDRNIDVFNVEDQKRDTINLLDQREKRNHTL
For B4, the binding entry in assay [3] was “no binding”.

B5: Flag-tagged GP73 fragment, 56-205 aa domain (domain or fragment, UniProt Q8NBJ4 56-205)
chain: AAAERGAVELKKNEFQGELEKQREQLDKIQSSHNFQLESVNKLYQDEKAVLVNNITTGERLIRVLQDQLKTLQRNYGRLQQDVLQFQKNQTNLERKFSYDLSQCINQMKEVKEQCEERIEEVTKKGNEAVASRDLSENNDQRQQLQALSE
Consider B5, for which the binding result in assay [3] was “binds”.
